In the supplement of paper PMC8728848:
Some of the results follow.

Columns and labels:
Assay in all cases: glycan array binding signal (z-score within array); higher = stronger binding
Settings in all cases: glycan notation: IUPAC condensed, linker removed
[1] = molecular target: Gal(b1-3)GlcNAc(b1-6)[Gal(b1-3)]GalNAc
How it was run: (§1)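 Negative Z-scores can be read as non-binding. The Z-score is calculated within each array and then averaged across arrays of one protein sequence at different concentrations or buffers and across linkers. Arrays, 3228 in all, were curated from the Consortium for Functional Glycomics database and kept only where the protein sequence was available.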

Gal(b1-3)GlcNAc6S = molecular target: Gal(b1-3)GlcNAc6S
How it was run: as §1

[2] = molecular target: Gal(b1-3)[Fuc(a1-4)]GlcNAc
How it was run: as §1

[3] = molecular target: Gal(b1-3)[Fuc(a1-4)]GlcNAc(b1-2)Man
How it was run: as §1

[4] = molecular target: Gal(b1-3)[Fuc(a1-4)]GlcNAc(b1-2)Man(a1-3)[Gal(b1-3)[Fuc(a1-4)]GlcNAc(b1-2)Man(a1-6)]Man(b1-4)GlcNAc(b1-4)[Fuc(a1-6)]GlcNAc
How it was run: as §1

[5] = molecular target: Gal(b1-3)[Fuc(a1-4)]GlcNAc(b1-3)Gal(b1-3)[Fuc(a1-4)]GlcNAc
How it was run: as §1

[6] = molecular target: Gal(b1-3)[Fuc(a1-4)]GlcNAc(b1-3)Gal(b1-4)[Fuc(a1-3)]GlcNAc
How it was run: as §1

[7] = molecular target: Gal(b1-3)[Fuc(a1-4)]GlcNAc(b1-6)GalNAc
How it was run: as §1

[8] = molecular target: Gal(b1-3)[GlcNAc(b1-6)]GalNAc
How it was run: as §1

[9] = molecular target: Gal(b1-3)[Neu5Ac(a2-6)]GalNAc
How it was run: as §1

[10] = molecular target: Gal(b1-3)[Neu5Ac(a2-6)]GlcNAc(b1-4)Gal(b1-4)Glc
How it was run: as §1

[11] = molecular target: Gal(b1-3)[Neu5Ac(b2-6)]GalNAc
How it was run: as §1

Gal(b1-4)Gal = molecular target: Gal(b1-4)Gal
How it was run: as §1

[12] = molecular target: Gal(b1-4)GalNAc(a1-3)[Fuc(a1-2)]Gal(b1-4)GlcNAc
How it was run: as §1

[13] = molecular target: Gal(b1-4)GalNAc(b1-3)[Fuc(a1-2)]Gal(b1-4)GlcNAc
How it was run: as §1

Gal(b1-4)Glc = molecular target: Gal(b1-4)Glc
How it was run: as §1

Gal(b1-4)Glc6S = molecular target: Gal(b1-4)Glc6S
How it was run: as §1

Gal(b1-4)GlcNAc = molecular target: Gal(b1-4)GlcNAc
How it was run: as §1

[14] = molecular target: Gal(b1-4)GlcNAc(a1-6)Gal(b1-4)GlcNAc
How it was run: as §1

Gal(b1-4)GlcNAc(b1-2)Man = molecular target: Gal(b1-4)GlcNAc(b1-2)Man
How it was run: as §1

[15] = molecular target: Gal(b1-4)GlcNAc(b1-2)Man(a1-3)Man(b1-4)GlcNAc(b1-4)GlcNAc
How it was run: as §1

[16] = molecular target: Gal(b1-4)GlcNAc(b1-2)Man(a1-3)[Gal(b1-4)GlcNAc(b1-2)Man(a1-6)]Man(b1-4)GlcNAc(b1-4)GlcNAc
How it was run: as §1

[17] = molecular target: Gal(b1-4)GlcNAc(b1-2)Man(a1-3)[Gal(b1-4)GlcNAc(b1-2)Man(a1-6)]Man(b1-4)GlcNAc(b1-4)[Fuc(a1-6)]GlcNAc
How it was run: as §1

[18] = molecular target: Gal(b1-4)GlcNAc(b1-2)Man(a1-3)[Gal(b1-4)GlcNAc(b1-2)Man(a1-6)][Gal(b1-4)GlcNAc(b1-4)]Man(b1-4)GlcNAc(b1-4)[Fuc(a1-6)]GlcNAc
How it was run: as §1

[19] = molecular target: Gal(b1-4)GlcNAc(b1-2)Man(a1-3)[Gal(b1-4)GlcNAc(b1-2)Man(a1-6)][GlcNAc(b1-4)]Man(b1-4)GlcNAc(b1-4)[Fuc(a1-6)]GlcNAc
How it was run: as §1

[20] = molecular target: Gal(b1-4)GlcNAc(b1-2)Man(a1-3)[GlcNAc(b1-2)Man(a1-6)]Man(b1-4)GlcNAc(b1-4)GlcNAc
How it was run: as §1

[21] = molecular target: Gal(b1-4)GlcNAc(b1-2)Man(a1-3)[GlcNAc(b1-4)][Gal(b1-4)GlcNAc(b1-2)Man(a1-6)]Man(b1-4)GlcNAc(b1-4)GlcNAc
How it was run: as §1

[22] = molecular target: Gal(b1-4)GlcNAc(b1-2)Man(a1-3)[Man(a1-6)]Man(b1-4)GlcNAc(b1-4)GlcNAc
How it was run: as §1

[23] = molecular target: Gal(b1-4)GlcNAc(b1-2)Man(a1-6)Man(b1-4)GlcNAc(b1-4)GlcNAc
How it was run: as §1

[24] = molecular target: Gal(b1-4)GlcNAc(b1-2)Man(a1-6)[GlcNAc(b1-2)Man(a1-3)]Man(b1-4)GlcNAc(b1-4)GlcNAc
How it was run: as §1

[25] = molecular target: Gal(b1-4)GlcNAc(b1-2)Man(a1-6)[Man(a1-3)]Man(b1-4)GlcNAc(b1-4)GlcNAc
How it was run: as §1

[26] = molecular target: Gal(b1-4)GlcNAc(b1-2)[Gal(b1-4)GlcNAc(b1-4)]Man(a1-3)[Gal(b1-4)GlcNAc(b1-2)Man(a1-6)]Man(b1-4)GlcNAc(b1-4)GlcNAc
How it was run: as §1

[27] = molecular target: Gal(b1-4)GlcNAc(b1-2)[Gal(b1-4)GlcNAc(b1-4)]Man(a1-3)[Gal(b1-4)GlcNAc(b1-2)[Gal(b1-4)GlcNAc(b1-6)]Man(a1-6)]Man(b1-4)GlcNAc(b1-4)GlcNAc
How it was run: as §1

[28] = molecular target: Gal(b1-4)GlcNAc(b1-2)[Gal(b1-4)GlcNAc(b1-4)]Man(a1-3)[GlcNAc(b1-4)][Gal(b1-4)GlcNAc(b1-2)Man(a1-6)]Man(b1-4)GlcNAc(b1-4)GlcNAc
How it was run: as §1

[29] = molecular target: Gal(b1-4)GlcNAc(b1-2)[Gal(b1-4)GlcNAc(b1-4)]Man(a1-3)[GlcNAc(b1-4)][Gal(b1-4)GlcNAc(b1-2)[Gal(b1-4)GlcNAc(b1-6)]Man(a1-6)]Man(b1-4)GlcNAc(b1-4)GlcNAc
How it was run: as §1

[30] = molecular target: Gal(b1-4)GlcNAc(b1-2)[Gal(b1-4)GlcNAc(b1-6)]Man(a1-6)[Gal(b1-4)GlcNAc(b1-2)Man(a1-3)]Man(b1-4)GlcNAc(b1-4)GlcNAc
How it was run: as §1

[31] = molecular target: Gal(b1-4)GlcNAc(b1-2)[Gal(b1-4)GlcNAc(b1-6)]Man(a1-6)[Gal(b1-4)GlcNAc(b1-2)Man(a1-3)]Man(b1-4)GlcNAc(b1-4)[Fuc(a1-6)]GlcNAc
How it was run: as §1

B1: Na-CTL-1 (Necator americanus) (protein)
chain: MQRSFLLLLVVLAGAWAVNTTIPLKLMGGFTPMKYQCVGRVSDIWADVLFLIESSDMITKSGFRQVIAFITATTKKMTIGQDEKQTRVGFITYGEEAKLIYDLDHWRSTEKLSDLVQKIPYVKSSGTNIAAAIALANKVFNSPTHRPNVPKVMVIVANGLKKGSQNPIPVATAFKDFGGIIITIEYTQYDNIQVPILKKIASEGYNIRSNDEDFSVRTLTNMLLQANCFCPDHYVPFRVNNPEFGCFVTAKIPSMWRDAAEMCRAVEEGKLVKVENEEKAAFIMKLVGPKKEAWIGLRYYGNKFQWTDGTKLNADDFNLWPEDIKELNGPHCVSMYQDQKDKKYYWRAGKCLEDMRYVCEVQPCSASNYCSEPVFMYRQKHRALLPAPPPPPN
With B1 the “glycan array binding signal (z-score)” value [1] was -0.451, the “glycan array binding signal (z-score)” value (Gal(b1-3)GlcNAc6S) was -0.43 and the “glycan array binding signal (z-score)” value [2] was -0.259. The “glycan array binding signal (z-score)” value [3] was 0.634, the “glycan array binding signal (z-score)” value [4] was 0.006 and the “glycan array binding signal (z-score)” value [5] was 0.504. The “glycan array binding signal (z-score)” value [6] was -0.46, the “glycan array binding signal (z-score)” value [7] was 0.103 and the “glycan array binding signal (z-score)” value [8] was 0.562. For the same binder, the “glycan array binding signal (z-score)” value [9] was -0.497, the “glycan array binding signal (z-score)” value [10] was 0.181 and the “glycan array binding signal (z-score)” value [11] was -0.416. For the same binder, the “glycan array binding signal (z-score)” value (Gal(b1-4)Gal) was -0.35, the “glycan array binding signal (z-score)” value [12] was -0.214 and the “glycan array binding signal (z-score)” value [13] was -0.549. The “glycan array binding signal (z-score)” value (Gal(b1-4)Glc) was -0.15, the “glycan array binding signal (z-score)” value (Gal(b1-4)Glc6S) was -0.069 and the “glycan array binding signal (z-score)” value (Gal(b1-4)GlcNAc) was -0.255. For the same binder, the “glycan array binding signal (z-score)” value [14] was -0.635, the “glycan array binding signal (z-score)” value (Gal(b1-4)GlcNAc(b1-2)Man) was 0.187 and the “glycan array binding signal (z-score)” value [15] was -0.343. For the same binder, the “glycan array binding signal (z-score)” value [16] was -0.62, the “glycan array binding signal (z-score)” value [17] was -0.105 and the “glycan array binding signal (z-score)” value [18] was -0.149. The “glycan array binding signal (z-score)” value [19] was -0.303, the “glycan array binding signal (z-score)” value [20] was -0.27 and the “glycan array binding signal (z-score)” value [21] was 0.121. For the same binder, the “glycan array binding signal (z-score)” value [22] was 0.253, the “glycan array binding signal (z-score)” value [23] was -0.313 and the “glycan array binding signal (z-score)” value [24] was -0.602. The “glycan array binding signal (z-score)” value [25] was 3.16, the “glycan array binding signal (z-score)” value [26] was 0.445 and the “glycan array binding signal (z-score)” value [27] was 0.369. The “glycan array binding signal (z-score)” value [28] was -0.503, the “glycan array binding signal (z-score)” value [29] was -0.558 and the “glycan array binding signal (z-score)” value [30] was -0.505. For the same binder, the “glycan array binding signal (z-score)” value [31] was 0.921.
